# Experimental data as given in paper PMC12820563, “FoxP3 forms a head-to-head dimer in vivo and stabilizes its multimerization on adjacent microsatellites”.
# The other results are listed elsewhere or left out.
# Target: T1, MBP-FoxP1dN (Mus musculus, UniProt P58462 326-579)
# T1 sequence: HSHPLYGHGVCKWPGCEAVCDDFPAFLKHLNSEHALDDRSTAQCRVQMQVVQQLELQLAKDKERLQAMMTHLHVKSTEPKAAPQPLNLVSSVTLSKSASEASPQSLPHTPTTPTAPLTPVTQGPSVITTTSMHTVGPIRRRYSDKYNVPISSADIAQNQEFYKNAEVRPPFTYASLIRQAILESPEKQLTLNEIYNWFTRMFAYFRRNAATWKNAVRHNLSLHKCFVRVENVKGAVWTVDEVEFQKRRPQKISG
# Assay: PD-seq (MBP pull-down with sequencing); 20 mM Tris-HCl pH 7.5, 100 mM NaCl, 1.5 mM MgCl2, 0.4 uM protein, 0.1 uM dsDNA library, 30 min, room temperature, amylose pull-down; high values mean tight binding
# Conditions: protein: recombinant; tags: His6-MBP; chain copies: 2; dsDNA, one strand shown
# Procedure, shortened: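 A degenerate double-stranded DNA library, filled in with Klenow, was added at 0.1 µM to 0.4 µM His6-MBP-tagged mouse FoxP3 or FoxP1 fragment lacking the N-terminus, expressed in E. coli. Incubation lasted 30 min at room temperature in Tris pH 7.5 buffer with NaCl and MgCl2, after which complexes were collected on amylose resin, washed three times, digested with proteinase K to free the DNA, barcoded by PCR and sequenced by Illumina. Binding is the pooled-replicate reads-per-million enrichment of pull-down over input.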
row,Sequence,binding signal
1,GATGATTGTTCTCCCAGCTGATGAATTTCCTACGTCGAGTAAACAAATTTTCCTAATCTTTCTGTTCAAGCGCCATCTAC,0.837 RPM ratio (pull-down/input)
2,GATGATTGTTCTCCCAGCTGATGAATTGCACCGATCGAGTAAACAAATTTTCCTAATCTTTCTGTTCAAGCGCCATCTAC,1.16 RPM ratio (pull-down/input)
3,GATGATTGTTCTCCCAGCTGATGAATTCCGTATTTCGAGTAAACAAATTTTCCTAATCTTTCTGTTCAAGCGCCATCTAC,0.942 RPM ratio (pull-down/input)
4,GATGATTGTTCTCCCAGCTGATGAATTTGCGCTATCGAGTAAACAAATTTTCCTAATCTTTCTGTTCAAGCGCCATCTAC,1.09 RPM ratio (pull-down/input)
5,GATGATTGTTCTCCCAGCTGATGAATTACAGAGTTCGAGTAAACAAATTTTCCTAATCTTTCTGTTCAAGCGCCATCTAC,1.03 RPM ratio (pull-down/input)
6,GATGATTGTTCTCCCAGCTGATGAATTACTGCATTCGAGTAAACAAATTTTCCTAATCTTTCTGTTCAAGCGCCATCTAC,1.36 RPM ratio (pull-down/input)
7,GATGATTGTTCTCCCAGCTGATGAATTCACGAGTTCGAGTAAACAAATTTTCCTAATCTTTCTGTTCAAGCGCCATCTAC,0.817 RPM ratio (pull-down/input)
8,GATGATTGTTCTCCCAGCTGATGAATTACAGGTTTCGAGTAAACAAATTTTCCTAATCTTTCTGTTCAAGCGCCATCTAC,1.19 RPM ratio (pull-down/input)
9,GATGATTGTTCTCCCAGCTGATGAATTTCTAGATTCGAGTAAACAAATTTTCCTAATCTTTCTGTTCAAGCGCCATCTAC,0.871 RPM ratio (pull-down/input)
10,GATGATTGTTCTCCCAGCTGATGAATTAGCCGATTCGAGTAAACAAATTTTCCTAATCTTTCTGTTCAAGCGCCATCTAC,0.875 RPM ratio (pull-down/input)
11,GATGATTGTTCTCCCAGCTGATGAATTTTGTACCTCGAGTAAACAAATTTTCCTAATCTTTCTGTTCAAGCGCCATCTAC,0.964 RPM ratio (pull-down/input)
12,GATGATTGTTCTCCCAGCTGATGAATTCTAGAAATCGAGTAAACAAATTTTCCTAATCTTTCTGTTCAAGCGCCATCTAC,0.972 RPM ratio (pull-down/input)
13,GATGATTGTTCTCCCAGCTGATGAATTTTTCTGTTCGAGTAAACAAATTTTCCTAATCTTTCTGTTCAAGCGCCATCTAC,0.964 RPM ratio (pull-down/input)
14,GATGATTGTTCTCCCAGCTGATGAATTTACGGGTTCGAGTAAACAAATTTTCCTAATCTTTCTGTTCAAGCGCCATCTAC,1.11 RPM ratio (pull-down/input)
15,GATGATTGTTCTCCCAGCTGATGAATTCGTATACTCGAGTAAACAAATTTTCCTAATCTTTCTGTTCAAGCGCCATCTAC,1.04 RPM ratio (pull-down/input)
16,GATGATTGTTCTCCCAGCTGATGAATTAGTAGAATCGAGTAAACAAATTTTCCTAATCTTTCTGTTCAAGCGCCATCTAC,0.994 RPM ratio (pull-down/input)

row,Sequence,binding signal
1,GATGATTGTTCTCCCAGCTGATGAATTCATGTTATCGAGTAAACAAATTTTCCTAATCTTTCTGTTCAAGCGCCATCTAC,1.78 RPM ratio (pull-down/input)
2,GATGATTGTTCTCCCAGCTGATGAATTTCGGGGCTCGAGTAAACAAATTTTCCTAATCTTTCTGTTCAAGCGCCATCTAC,0.745 RPM ratio (pull-down/input)
3,GATGATTGTTCTCCCAGCTGATGAATTCGTGACTTCGAGTAAACAAATTTTCCTAATCTTTCTGTTCAAGCGCCATCTAC,0.886 RPM ratio (pull-down/input)
4,GATGATTGTTCTCCCAGCTGATGAATTACGGTGCTCGAGTAAACAAATTTTCCTAATCTTTCTGTTCAAGCGCCATCTAC,0.883 RPM ratio (pull-down/input)
5,GATGATTGTTCTCCCAGCTGATGAATTAAGTATGTCGAGTAAACAAATTTTCCTAATCTTTCTGTTCAAGCGCCATCTAC,0.977 RPM ratio (pull-down/input)
6,GATGATTGTTCTCCCAGCTGATGAATTACACATATCGAGTAAACAAATTTTCCTAATCTTTCTGTTCAAGCGCCATCTAC,1.4 RPM ratio (pull-down/input)
7,GATGATTGTTCTCCCAGCTGATGAATTGTCAATGTCGAGTAAACAAATTTTCCTAATCTTTCTGTTCAAGCGCCATCTAC,1.2 RPM ratio (pull-down/input)
8,GATGATTGTTCTCCCAGCTGATGAATTTGGGTGCTCGAGTAAACAAATTTTCCTAATCTTTCTGTTCAAGCGCCATCTAC,0.895 RPM ratio (pull-down/input)
9,GATGATTGTTCTCCCAGCTGATGAATTGGTCCGCTCGAGTAAACAAATTTTCCTAATCTTTCTGTTCAAGCGCCATCTAC,0.843 RPM ratio (pull-down/input)
10,GATGATTGTTCTCCCAGCTGATGAATTGGCAACCTCGAGTAAACAAATTTTCCTAATCTTTCTGTTCAAGCGCCATCTAC,0.912 RPM ratio (pull-down/input)
11,GATGATTGTTCTCCCAGCTGATGAATTATTAACGTCGAGTAAACAAATTTTCCTAATCTTTCTGTTCAAGCGCCATCTAC,1.19 RPM ratio (pull-down/input)
12,GATGATTGTTCTCCCAGCTGATGAATTCCGTGGTTCGAGTAAACAAATTTTCCTAATCTTTCTGTTCAAGCGCCATCTAC,0.818 RPM ratio (pull-down/input)
13,GATGATTGTTCTCCCAGCTGATGAATTCATCAGGTCGAGTAAACAAATTTTCCTAATCTTTCTGTTCAAGCGCCATCTAC,0.792 RPM ratio (pull-down/input)
14,GATGATTGTTCTCCCAGCTGATGAATTCAGAGGGTCGAGTAAACAAATTTTCCTAATCTTTCTGTTCAAGCGCCATCTAC,0.74 RPM ratio (pull-down/input)
15,GATGATTGTTCTCCCAGCTGATGAATTAACGTGCTCGAGTAAACAAATTTTCCTAATCTTTCTGTTCAAGCGCCATCTAC,0.89 RPM ratio (pull-down/input)
16,GATGATTGTTCTCCCAGCTGATGAATTACGTTGGTCGAGTAAACAAATTTTCCTAATCTTTCTGTTCAAGCGCCATCTAC,1.01 RPM ratio (pull-down/input)
